Experimental data taken from patent publication US20240374736A1, “INHALED LIQUID FOR THE TREATMENT OF RESPIRATORY INFECTIONS IN HUMANS CAUSED BY PATHOGENS RESISTANT TO ANTIBIOTICS” (priority 2023, published 2024).

Tested on: Histoplasma capsulatum
Format: cell-based
Conditions: Müler-Hinton-Agar, amount used: novel compound 0.05 mL, Cephalosporin 0.1 mL, Ampicillin 0.2 mL

With `CC1(C)S[C@@H]2[C@H](NC(=O)[C@H](N)c3ccccc3)C(=O)N2[C@H]1C(=O)O` [Ampicilin, Ampicillin] the “R (evaluation of the results by zone diameter)” value was “R (0 mm-4 mm: resistant: R)” and the zone diameter was 2 mm.
